Experimental findings from paper PMC4336329 (PLoS ONE, 2015) are described below.

Hit rate of the full screen: of about 310,000 compounds, about 2,200 (0.71%) showed an effect of 50% or more. Effects have a minus sign here. The list shows a part of the results.

Chain of human ether-à-go-go-related gene (hERG) potassium channel (Q12809 whole entry, looked up): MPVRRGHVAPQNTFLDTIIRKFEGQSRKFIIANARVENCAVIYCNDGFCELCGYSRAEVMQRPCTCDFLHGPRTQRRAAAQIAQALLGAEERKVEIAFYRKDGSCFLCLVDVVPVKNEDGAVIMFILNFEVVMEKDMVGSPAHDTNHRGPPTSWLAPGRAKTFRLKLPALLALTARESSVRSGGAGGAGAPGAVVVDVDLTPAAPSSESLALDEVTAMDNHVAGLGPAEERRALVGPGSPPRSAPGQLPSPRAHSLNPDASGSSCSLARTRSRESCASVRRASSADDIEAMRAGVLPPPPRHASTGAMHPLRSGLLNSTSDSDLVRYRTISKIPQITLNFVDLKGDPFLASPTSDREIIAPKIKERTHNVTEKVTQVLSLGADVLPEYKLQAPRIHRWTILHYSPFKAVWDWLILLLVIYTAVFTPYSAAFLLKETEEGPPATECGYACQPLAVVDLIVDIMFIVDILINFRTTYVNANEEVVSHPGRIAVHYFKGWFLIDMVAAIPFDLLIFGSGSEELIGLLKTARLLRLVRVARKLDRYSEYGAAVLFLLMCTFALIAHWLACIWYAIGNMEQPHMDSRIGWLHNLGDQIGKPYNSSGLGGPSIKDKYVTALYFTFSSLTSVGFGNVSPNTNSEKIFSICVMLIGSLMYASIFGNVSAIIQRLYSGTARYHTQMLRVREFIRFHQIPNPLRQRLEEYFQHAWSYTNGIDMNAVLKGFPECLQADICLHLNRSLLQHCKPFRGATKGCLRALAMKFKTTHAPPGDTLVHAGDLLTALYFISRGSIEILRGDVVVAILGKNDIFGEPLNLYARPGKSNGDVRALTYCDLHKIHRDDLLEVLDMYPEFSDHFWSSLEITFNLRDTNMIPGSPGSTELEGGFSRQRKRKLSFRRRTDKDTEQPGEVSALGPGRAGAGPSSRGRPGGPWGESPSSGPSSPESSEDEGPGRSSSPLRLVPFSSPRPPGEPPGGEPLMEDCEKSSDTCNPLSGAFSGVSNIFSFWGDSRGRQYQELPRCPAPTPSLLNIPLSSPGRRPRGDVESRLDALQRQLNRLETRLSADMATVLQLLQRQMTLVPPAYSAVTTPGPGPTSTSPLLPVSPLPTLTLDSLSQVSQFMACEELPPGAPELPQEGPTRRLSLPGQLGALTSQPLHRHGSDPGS

The assay concerns the target human ether-à-go-go-related gene (hERG) potassium channel (human, UniProt Q12809). The assay is described as follows: primary screen, population patch clamp on CHO cells stably expressing hERG.
For `CC1(C)CC(=O)c2cc(N=C/C(C(=O)c3ccccc3)=C(\O)c3ccccc3)c(=O)oc2C1`, the “hERG current change (%, negative = inhibition) at 1uM” value was 9.14%.
To `Cc1cc(C(=O)OCC(=O)c2ccc(Br)s2)c(C)o1` belongs 4.75%; to `c1ccc(CNc2ncnc3sc4c(c23)CCCC4)nc1`, 2.28%; to `CC(/C=N/NC(=O)c1nnn(-c2nonc2N)c1CN1CCCCC1)c1ccccc1` (centres unmarked), 12.1%.
In the case of `Cc1nc2ccccc2c2c1C(=O)N(c1cccc(C(=O)O)c1)C2=O`, the “hERG current change (%, negative = inhibition) at 1uM” value stood at 17.7%.
To `Clc1ccc(Cl)c(OCc2cc(-c3ccccc3Cl)on2)c1` belongs 15.8%.
Then `Nc1ccc(-c2ccc(C(=O)O)s2)cn1`, with 12.5%; and `O=C(Nc1ccc2c(c1)OCCO2)C1CCCN(S(=O)(=O)c2cccs2)C1` (centres unmarked), with 10.7%; and `COc1ccccc1OCc1ccc(C(=O)NN)o1`, with 15.6%.
For `CCc1n[nH]c(=S)n1/N=C/c1ccc2c(c1)OCO2`, the “hERG current change (%, negative = inhibition) at 1uM” value is recorded as 8.4%.
On to `C[N+](C)(C)CC(=O)Nc1ccc(Cl)cc1C(=O)c1ccccc1.[Br-]`, for which the “hERG current change (%, negative = inhibition) at 1uM” value was found to be 12.2%.
As to `Cc1cc(CNC(=O)c2cccnc2Cl)c2ccccc2n1`, the “hERG current change (%, negative = inhibition) at 1uM” value was -5.22%.
Turning to `O=C(NCc1nc(-c2ccccc2)no1)c1ccc(Br)o1`, the “hERG current change (%, negative = inhibition) at 1uM” value amounted to 8.02%.
To `COc1ccc(CN(C(=O)c2snc(C(N)=O)c2N)C(CC(C)C)C(=O)NC2CCCCC2)cc1` (centres unmarked) belongs 6.86%.
To `O=C(O)CCCC(=O)Nc1ccccc1C(=O)N1CCOCC1` belongs 14.3%.
In the case of `NC(=O)c1ccccc1N/C=C/C(=O)c1ccco1`, the “hERG current change (%, negative = inhibition) at 1uM” value is 14.4%.
To `NC(=O)CN(N=Nc1cccc([N+](=O)[O-])c1)c1cccc([N+](=O)[O-])c1` belongs 1.36%.
For `O=C(CCN1C(=O)C2C3C=CC(C3)C2C1=O)Nc1ccc(F)cc1` (centres unmarked), the “hERG current change (%, negative = inhibition) at 1uM” value is on record as 5.83%.
In the case of `CCCn1c(SCC(=O)NCC)nc2sc3c(c2c1=O)CCC3`, the “hERG current change (%, negative = inhibition) at 1uM” value is reported as 7.52%.
In the case of `COc1cc2c(cc1OC)CN(C(=O)Cc1ccc(OC)c(S(=O)(=O)N3CCOCC3)c1)CC2`, the “hERG current change (%, negative = inhibition) at 1uM” value was -1.16%.
In the case of `O=C(Nc1ccccc1)[C@@H]1CC=C[C@@H]2CCN(Cc3ccccc3)C(=O)[C@@H]21`, the “hERG current change (%, negative = inhibition) at 1uM” value was 10.9%.
Then `CN(c1ccccc1)S(=O)(=O)c1cccc(NC(=O)CCNC(=O)c2ccc(Cl)cc2)c1`, with 4.55%.
Then `CCO[C@@H]1OC(C(=O)NCc2nc3ccccc3[nH]2)=C[C@H](c2coc3ccccc3c2=O)[C@H]1CCCO`, with 6.96%; and `COc1ccc(C(=O)NCCC(=O)NCc2cc(=O)n(C)c(=O)n2C)cc1`, with 18.1%; and `S=C(NC1CCCCC1)N1CCOCCOCCN(C(=S)NC2CCCCC2)CCOCC1`, with 12.1%.
Take `CCN1C[C@]2(C)CC[C@H](O)[C@]34C1[C@H](C[C@H]23)[C@@]1(O)C[C@H](OC)[C@H]2C[C@@H]4[C@@H]1C2O` (some centres unmarked): the “hERG current change (%, negative = inhibition) at 1uM” value is 13%.
Then `CCn1c(SCC(=O)Nc2ccc3c(c2)OCO3)nnc1-c1ccccc1O`, with 17.2%; and `COc1cccc(CN(CC2CCCO2)S(=O)(=O)c2ccc(-n3cnnn3)c(OC)c2)c1` (centres unmarked), with 1.58%.
As for `CCC(=O)N1CCc2cc(S(=O)(=O)NC(CC(C)C)C(=O)N3CCc4ccccc43)ccc21` (centres unmarked), the “hERG current change (%, negative = inhibition) at 1uM” value is -9.56%.
In the case of `S=c1[nH]c2ccccc2o1`, the “hERG current change (%, negative = inhibition) at 1uM” value was 7.26%.
For the molecule `COc1ccc(Nc2ncnc3ccccc23)c(OC)c1.Cl`, the “hERG current change (%, negative = inhibition) at 1uM” value is on record as -0.118%.
Then `CC(=O)c1ccc(S(=O)(=O)N2CCN(C(=O)c3ccc(-n4cncn4)c([N+](=O)[O-])c3)CC2)cc1`, with 11.3%; and `Cc1c2ccccc2nc2c(F)c(NC(C)C)c(F)c(F)c12`, with 1.74%; and `Cc1cccc(C=Nc2ccc3c4c(cccc24)CC3)c1O`, with 15.9%.
In the case of `CCCc1nc(SCC(=O)NNC(=O)C2CCCCC2)c2ccccc2n1`, the “hERG current change (%, negative = inhibition) at 1uM” value worked out at 0.14%.
To `COc1cccc2oc(-c3ccco3)cc(=O)c12` belongs 5.52%; to `S=C(NCCN1CCOCC1)N1CCN(c2cccc(Cl)c2)CC1`, 0.588%; to `Cc1ccc(Cl)cc1NC(=O)NCc1cccnc1`, 16.2%.
To `O=C1CC(C(=O)Nc2ccccc2)N=C(N2CCOCC2)N1` (centres unmarked) belongs 5.54%; to `CC(=O)c1cc(F)c(N2CCN(CCC#N)CC2)cc1C`, 9.12%.
Consider `CC(C)N1C(=O)CCC1C(=O)O` (centres unmarked), for which the “hERG current change (%, negative = inhibition) at 1uM” value turned out to be 16.7%.
With `CCOC(=O)c1nc(SC)n(C)c1C(=O)OCC`, the “hERG current change (%, negative = inhibition) at 1uM” value is reported as 9.58%.
For the molecule `O=C(c1ccc(F)cc1)N1CCCCC(Sc2nnc3ccccn23)C1=O` (centres unmarked), the “hERG current change (%, negative = inhibition) at 1uM” value is -34.6%.
On to `CN(C)S(=O)(=O)c1ccc(N=Cc2c(C(F)(F)F)[nH]n(C)c2=O)cc1`, for which the “hERG current change (%, negative = inhibition) at 1uM” value came to 8.08%.
As to `CSCCC(NC(N)=O)C(=O)N(C)CC(=O)Nc1ccc(C)cc1` (centres unmarked), the “hERG current change (%, negative = inhibition) at 1uM” value stood at 11%.
To `CCOC(=O)Cc1c(C)nc2c(-c3ccccc3)c(-c3ccccc3)[nH]n2c1=O` belongs 2.13%.
Then `COCCNC(=O)C(=O)c1cc(C)n(-c2ccc([N+](=O)[O-])cc2)c1C`, with -4.17%; and `CCOc1ccc(-c2nc(CSCC(=O)NC3CCCc4ccccc43)c(C)o2)cc1` (centres unmarked), with 3.71%; and `COC(=O)c1nc(N)sc1C(C)C`, with 15.6%.
Turning to `CCOC(=O)c1c(NC(=O)Cn2cnc3sc(C)c(-c4ccccc4)c3c2=O)sc(C)c1C`, the “hERG current change (%, negative = inhibition) at 1uM” value worked out at 3.54%.
On to `O=C(Nc1ccncc1)c1ccc2c(c1)C(=O)N(CC1CCCO1)C2=O` (centres unmarked), for which the “hERG current change (%, negative = inhibition) at 1uM” value is recorded as -2.45%.
Then `O=C(c1ccccc1)N(Cc1cccnc1)C1(C(=O)Nc2ccccc2)CCCCC1`, with 8.82%; and `CCn1c(-c2ccc(C)cc2)nn(CC(=O)NCCc2ccccc2)c1=S`, with -2.97%.
Take `CCSC1=C(C#N)C(c2cccc(O)c2)CC(=O)N1` (centres unmarked): the “hERG current change (%, negative = inhibition) at 1uM” value came to 3.9%.
Then `O=C(Oc1c(Br)cc(C(=S)N2CCOCC2)cc1Br)c1ccc(Cl)cc1`, with 11.6%; and `CC12COC3(C(=O)N4CCN(c5ccccn5)CC4)CC1CCC32C` (centres unmarked), with -3.31%.
`CCS(=O)(=O)N1CCN(c2ccc([N+](=O)[O-])c(N3CCOCC3)c2)CC1`: the “hERG current change (%, negative = inhibition) at 1uM” value amounted to 4.65%.
On to `CCN(CC)CCNC(=O)C1CCN(S(=O)(=O)c2c(C)noc2/C=C/c2ccccc2F)CC1`, for which the “hERG current change (%, negative = inhibition) at 1uM” value is on record as -2.13%.
Then `CCC(=O)Nc1sc(C(=O)Nc2ccccc2F)c(C)c1C(=O)OC`, with 7.41%; and `CCOc1c(OC)cccc1C1CC(=O)Nc2cc3c(cc21)OCCO3` (centres unmarked), with 12.2%; and `CC1(C)CCC[C@@]2(C)CC=C(C(=O)O)[C@@H]3C[C@]312`, with 9.44%.
Regarding `COc1ccc(Cl)cc1NC(=O)CNCc1cccs1.O=C(O)C(=O)O`, the “hERG current change (%, negative = inhibition) at 1uM” value is 10.3%.
Regarding `CC(=O)N/C(=C/c1ccc2c(c1)OCO2)C(=O)O`, the “hERG current change (%, negative = inhibition) at 1uM” value was determined as 12.1%.
Then `Nc1ccc2c(C(F)(F)F)cc(=O)oc2c1`, with 13.3%.
Then `CC1CN(c2ccc([N+](=O)[O-])c(NCCOc3ccccc3)c2)CCN1` (centres unmarked), with 3.95%.
`CN(c1ccccc1)C(c1ccc(F)cc1)c1nnnn1C1CCCC1` (centres unmarked): the “hERG current change (%, negative = inhibition) at 1uM” value was 0.381%.
As to `C=CCn1c(NC(=O)c2ccc(C)cc2)nc2ccccc21`, the “hERG current change (%, negative = inhibition) at 1uM” value was found to be 7.93%.
To `CCOc1ccccc1NC(=S)NCCCn1ccnc1` belongs 23%.
As to `C=CCC(CC=C)(C(N)=O)c1ccccc1`, the “hERG current change (%, negative = inhibition) at 1uM” value is -3.6%.
Then `COc1ccccc1N1CCN(C(=O)c2cc3c(s2)-c2ccccc2OC3)CC1`, with 17%; and `O=C(CNC(=O)C(c1ccccc1)c1ccccc1)N/N=C\c1cccc(O)c1`, with 13.1%; and `O=C(O)/C=C/c1ccc2ccccc2n1`, with 4.62%.
As to `Cc1ccc(SCCC(=O)NC(C)(C)C)cc1`, the “hERG current change (%, negative = inhibition) at 1uM” value is -0.491%.
To `COc1ccc(-c2noc(CCCC(=O)NCc3ccco3)n2)cc1OC` belongs 11%; to `CCOC(=O)c1ccc(NC(=O)C2(c3ccccc3)CCOCC2)cc1`, 15%.
To `Cc1nn(-c2nc3ccccc3[nH]2)c(N)c1-c1ccc(Cl)cc1` belongs 9.68%; to `Cn1ncc([N+](=O)[O-])c1C(=O)Nc1cccc(Cl)c1`, 10.1%; to `Cn1c(=O)c2c(nc(Br)n2CCSc2ncccn2)n(C)c1=O`, 10.5%.
As to `O=C(Nc1cc(C(F)(F)F)cc(C(F)(F)F)c1)Nc1cnn(-c2ccc([N+](=O)[O-])cc2)c1C(F)(F)F`, the “hERG current change (%, negative = inhibition) at 1uM” value came to 4.68%.
Regarding `CC1=NN(C(=O)c2ccc(Cn3nc(C)cc3C)o2)C(O)(C(F)(F)F)C1` (centres unmarked), the “hERG current change (%, negative = inhibition) at 1uM” value came out at 9.27%.
Then `C[C@]12CC[C@H](O)C[C@@H]1CC[C@@H]1[C@@H]2CC[C@]2(C)C(=O)CC[C@@H]12`, with 3.96%; and `Cc1ccc(S(=O)(=O)NN2C(=O)c3ccccc3NC2c2ccccc2)cc1` (centres unmarked), with -10%.
Then `CC(C)NC(=O)c1ccc(CN2CCc3ccccc3C2)cc1`, with -11.1%; and `Cc1c(CC(=O)O)c(=O)oc2c(C)c(OCc3nn[nH]n3)ccc12`, with 15.3%.
Then `O=C(Cn1cnc2c(nnn2Cc2ccccc2)c1=O)NCC1CCCO1` (centres unmarked), with 10.8%; and `Cc1ccc(C)c(OCC(=O)N2CCN(Cc3ccc4c(c3)OCO4)CC2)c1`, with -2.43%.
Take `Cl.N=C(N)c1ccc(Cl)cc1`: the “hERG current change (%, negative = inhibition) at 1uM” value amounted to 16%.
To `O=S(=O)(c1ccccc1)N1CCOCC1` belongs 3.93%; to `Fc1ccccc1C1CC(c2ccco2)=Nc2ccccc2S1` (centres unmarked), 16.2%.
